Results taken from patent US20190216947A1 (KOREA INSTITUTE OF SCIENCE AND TECHNOLOGY, published 2019).

Experiments:
Human CD47 = Human CD47 (human); test: SPR
Mouse CD47 = biological target: T1, Mouse CD47 (mouse); test: SPR
T1 sequence (looked up): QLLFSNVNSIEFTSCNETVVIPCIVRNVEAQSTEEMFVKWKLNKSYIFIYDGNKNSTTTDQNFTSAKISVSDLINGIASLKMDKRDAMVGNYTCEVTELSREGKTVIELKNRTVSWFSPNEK

Kd (Human CD47): 0.048 pM
koff (Human CD47): 2.4e-07 s⁻¹
kon (Human CD47): 5e+06 M⁻¹ s⁻¹
Kd (Mouse CD47): 370 pM
koff (Mouse CD47): 0.00041 s⁻¹
kon (Mouse CD47): 1.1e+06 M⁻¹ s⁻¹
B1: FH-SIRPα HV nanocage (self-assembled fusion of human ferritin heavy chain, linker peptide and SIRPα high-affinity variant) (other)
chain: [about 200 residues not written out]KESGSVSSEQLAQFRSLDEEELQIIQPDKSVLVAAGETATLRCTITSLFPVGPIQWFRGAGPGRVLIYNQRQGPFPRVTTVSDTTKRNNMDFSIRIGNITPADAGTYYCIKFRKGSPDDVEFKSGAGTELSVRAKP
notes: Expressed in E. coli from a pT7-7 vector comprising a His tag; also called FH-SIRPα nanocage; ferritin-SIRPα fusion nanocage
